Tested on: diamondback moth (Plutella xylostella)
Assay: whole plant or invertebrate
Settings: in Brassica oleracea, 120 h

Structure (SMILES)	mortality at 500 ppm
COc1ccccc1-n1ccc(OCc2c(-n3nnn(C)c3=O)cnn2C(C)(C)C)n1 [present compound 12, 1-(1-tert-butyl-5-{[1-(2-methoxyphenyl)-1H-pyrazol-3-yl]oxymethyl}-1H-pyrazol-4-yl)-4-methyl-1,4-dihydrotetrazol-5-one]	≥ 80%
Cc1cc(-c2nn(C)c(Cl)c2C)ccc1OCc1c(-n2nnn(C)c2=O)cnn1C(C)(C)C [present compound 14, 1-(1-tert-butyl-5-[2-methyl-4-(5-chloro-1,4-dimethyl-1H-pyrazol-3-yl)-phenoxymethyl]-1H-pyrazol-4-yl)-4-methyl-1,4-dihydrotetrazol-5-one]	≥ 80%

Reference: patent publication US20160272622A1, “TETRAZOLINONE COMPOUND AND USE THEREOF” (SUMITOMO CHEMICAL COMPANY, LIMITED, priority 2013, published 2016)
